# Results as given in PMC4336329 (PLoS ONE, 2015).
# About 14,000 (4.5%) of roughly 310,000 compounds showed an effect of 50% or more. Effects have a minus sign here. This is one part of the list.
# Target: human ether-à-go-go-related gene (hERG) potassium channel (human, UniProt Q12809)
# Test: primary screen, population patch clamp on CHO cells stably expressing hERG
# 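Note: peak tail current of the secondary pulse compared with the same well before compound.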
# Sequence of human ether-à-go-go-related gene (hERG) potassium channel (Q12809 whole entry, looked up): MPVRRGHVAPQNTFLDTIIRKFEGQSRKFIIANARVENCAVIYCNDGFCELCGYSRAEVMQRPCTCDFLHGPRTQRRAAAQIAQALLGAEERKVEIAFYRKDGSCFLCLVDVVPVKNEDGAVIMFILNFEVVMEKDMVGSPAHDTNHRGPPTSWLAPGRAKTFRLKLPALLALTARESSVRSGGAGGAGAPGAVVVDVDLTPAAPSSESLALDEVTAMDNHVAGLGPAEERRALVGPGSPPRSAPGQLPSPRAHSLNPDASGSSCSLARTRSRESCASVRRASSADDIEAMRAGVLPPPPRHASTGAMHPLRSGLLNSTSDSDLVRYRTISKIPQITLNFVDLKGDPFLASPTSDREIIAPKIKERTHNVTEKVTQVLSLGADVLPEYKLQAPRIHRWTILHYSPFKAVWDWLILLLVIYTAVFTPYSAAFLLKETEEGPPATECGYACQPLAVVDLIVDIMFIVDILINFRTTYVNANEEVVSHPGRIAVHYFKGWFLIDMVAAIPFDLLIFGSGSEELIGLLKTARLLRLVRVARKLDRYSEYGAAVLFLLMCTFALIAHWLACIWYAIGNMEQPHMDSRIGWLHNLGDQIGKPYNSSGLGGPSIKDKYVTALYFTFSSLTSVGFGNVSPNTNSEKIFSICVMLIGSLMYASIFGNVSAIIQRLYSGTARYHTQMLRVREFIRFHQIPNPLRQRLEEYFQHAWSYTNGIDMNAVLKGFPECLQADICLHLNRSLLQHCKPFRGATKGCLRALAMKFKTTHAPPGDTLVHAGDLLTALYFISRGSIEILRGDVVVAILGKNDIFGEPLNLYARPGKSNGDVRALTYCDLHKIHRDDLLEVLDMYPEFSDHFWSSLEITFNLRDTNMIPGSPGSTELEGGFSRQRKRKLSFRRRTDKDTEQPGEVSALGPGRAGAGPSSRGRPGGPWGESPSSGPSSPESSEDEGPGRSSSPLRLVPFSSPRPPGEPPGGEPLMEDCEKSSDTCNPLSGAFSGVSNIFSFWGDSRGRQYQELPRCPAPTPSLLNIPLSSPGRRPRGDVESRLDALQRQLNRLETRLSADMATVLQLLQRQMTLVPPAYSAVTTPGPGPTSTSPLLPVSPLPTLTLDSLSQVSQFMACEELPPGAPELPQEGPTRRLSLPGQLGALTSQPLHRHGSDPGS
row,Structure (SMILES),"hERG current change (%, negative = inhibition) at 10uM [%]"
1,O=C(N/N=C/c1ccc(C(F)(F)F)cc1)c1ccncc1,-18.9
2,ClCc1csc(-c2ccc(Cl)cc2)n1,-0.346
3,O=C(CN1CC(c2ccccc2)CC1=O)N/N=C/c1cc(Br)ccc1O (stereo not drawn),-10.6
4,C=CCn1c(=O)c(C(=O)NCc2ccc3c(c2)OCO3)c(O)c2ccccc21,21
5,CC1CC(C)CN(S(=O)(=O)c2cccc(C(=O)N3C(=O)c4cccc(N)c4C3=O)c2)C1 (stereo not drawn),3.91
6,Cc1sc2ncnc(NC(C)C(=O)O)c2c1C (stereo not drawn),22.8
7,CC(C)C(=O)N1CCN(c2ccc(NC(=O)c3ccc4c(c3)OCCO4)cc2)CC1,10.6
8,CC1(C)S[C@@H]2[C@H](NC(=O)COc3ccccc3)C(=O)N2C1C(=O)OCc1cc2ccccc2n1S(=O)(=O)c1ccccc1 (stereo partly drawn),5.99
9,O=C(Oc1cc(=O)oc2c1c(=O)n1c3c(cccc23)CC1)c1ccc(F)cc1,-12.2
10,COc1cc(C2C3=C(CC(C)(C)CC3=O)NC3=C2C(=O)c2ccccc23)ccc1O (stereo not drawn),7.83
11,C=C1CCN([C@@H](CC(C)C)C(=O)NCc2ccc(Cl)c(Cl)c2)S(=O)(=O)c2ccccc21,7.07
12,COCCNC(=O)C(=O)NCCN1CCOCC1,1.18
13,COc1ccc(NC(=O)COc2cccc3c2CCN(Cc2cccnc2)C3=O)cc1,-34.4
14,COc1ccc(C(=O)n2cc(C(=O)c3cc(C)ccc3O)cn2)cc1,5.84
15,O=C(N1CCOCC1)N1c2ccccc2Sc2ccccc21,-12.4
16,Cc1cc(C)cc(N(CCC(=O)O)S(=O)(=O)c2ccc3ccccc3c2)c1,3
17,O=C(CSc1nnc(COc2ccccc2F)n1-c1ccccc1)NC1CCS(=O)(=O)C1 (stereo not drawn),9.97
18,Cc1cccc(C)c1OP(N)(=O)OCC(F)(F)F (stereo not drawn),-26.4
19,Cc1cc(C)cc(NC(=S)NCc2ccc(S(N)(=O)=O)cc2)c1,8.2
20,CC1CCN(S(=O)(=O)c2cc(Cl)ccc2Br)CC1,-0.808
21,COC(=O)C1CCN(C(=O)Cc2ccc(C)cc2)CC1,-6.4
22,S=c1[nH]nc(-c2ccc3ccccc3n2)n1-c1ccc(Cl)cc1,12

row,Structure (SMILES),"hERG current change (%, negative = inhibition) at 10uM [%]"
1,CCOc1ccc(-n2c(C)c(C(C)=O)c(C(C)=O)c2C)cc1,-8.53
2,CC(=O)c1c(C)oc2c1C(=O)c1ccccc1C2=O,-4.64
3,O=S(=O)(NCCc1ccncc1)c1ccc(F)cc1,12
4,O=c1[nH]c(N2CCc3ccccc32)nc2c1CCCC2,-0.355
5,O=C(CNC(=O)c1ccccc1)N/N=C/c1cccs1,3.41
6,COc1ccc(C2C(C(=O)N3CCCCC3)CC(=O)N2c2ccc(OC)cc2)cc1 (stereo not drawn),-35.6
7,CN1CCN(C2Cc3ccc(F)cc3Sc3cc(F)c(Cl)cc32)CC1.CS(=O)(=O)O.O (stereo not drawn),-77.3
8,COC(=O)C1=C(C)NC2=C(C(=O)CC(C)(C)C2)C1c1cn(Cc2ccc(Br)cc2)nc1-c1ccccc1 (stereo not drawn),-41.5
9,CCc1nnc(NC(=O)c2cc(Cl)ccn2)s1,6.87
10,COc1ccc(-c2noc(-c3ccoc3C)n2)cc1,39.5
11,Cc1ccc(C(=O)/C=C/Nc2ccccn2)cc1,-1.05
12,COc1cc(NC(=S)N2CCN(S(=O)(=O)c3ccc(F)cc3)CC2)cc(OC)c1,23
13,CCc1cccc(C)c1NC(=O)c1ccc2c(c1)CCN2S(C)(=O)=O,-21.4
14,O=C(CSc1ncnc2ccccc12)NCC(=O)c1ccccc1,1.57
15,C=COCCn1c(-c2nonc2N)nc2ccccc21,-3.07
16,Cn1ncc2c(c(SCc3ccc(Cl)cc3Cl)nn2C)c1=O,13.1
17,COc1ccc(-c2cc(C(=O)N3CCCCCC3)no2)cc1,6.31
18,COc1ccc(Cn2nnc3c(=O)[nH]c(C(=O)NCCc4ccc(F)cc4)nc32)cc1OC,7.28
19,CCSc1nnc(-c2ccc(S(=O)(=O)NCc3cccs3)cc2)o1,-1.73
20,CC(C)c1cccc(OCCCCN(C)C)c1.O=C(O)C(=O)O,-14.1
21,CCOC(=O)N1CCN(C(=O)c2ccc(Cn3c(=S)[nH]c4cc(OCC)c(OCC)cc4c3=O)cc2)CC1,9.78
22,CCCCn1c(N)c(N(CCOC)C(=O)c2ccc(COc3ccccc3)o2)c(=O)[nH]c1=O,6.15

row,Structure (SMILES),"hERG current change (%, negative = inhibition) at 10uM [%]"
1,Cc1cc(NC(=O)CSc2cn(CCNC(=O)c3ccccc3)c3ccccc23)no1,-28.3
2,COc1ccc(CCNC(=O)C2CCN(S(=O)(=O)c3cccc4nsnc34)CC2)cc1OC,-16.3
3,COc1cc(OC)cc(-c2nc(-c3cccs3)no2)c1,16.4
4,CCn1c(CCC(=O)Nc2cc(F)ccc2C)nc2cc(S(=O)(=O)N(C)C)ccc21,-10.9
5,Cc1ccc(CC(=O)N2CCOCC2)cc1,5.01
6,O=C1/C(=C\c2ccco2)NC(=S)N1c1ccccc1,19.2
7,O=S(=O)(NCC(c1ccco1)N1CCc2ccccc2C1)c1ccc(F)cc1 (stereo not drawn),0.0316
8,Cl.N=c1sccn1CC(=O)Nc1cccc(S(=O)(=O)N2CCCCCC2)c1,-49.8
9,COc1ccc(C2CC(=O)C3=C(C2)Nc2ccccc2N(C(=O)CCC(=O)O)C3c2ccc(F)cc2)cc1OC (stereo not drawn),11.1
10,O=S(=O)(NC1CCCCC1N1CCOCC1)c1ccc(Cl)cc1 (stereo not drawn),2.16
11,Cc1cccc(NC(=O)c2ccco2)c1C,22.4
12,CCOC(=O)C1(CC2CCCCO2)CCN(C(=O)Nc2ccc(C)c(C)c2)CC1 (stereo not drawn),8.58
13,CCOC(=O)Nc1sc(C(=O)N(CC)CC)c(C)c1C(=O)OCC,-11.5
14,O=C(On1c(-c2ccccc2)nc2ccccc2c1=O)c1ccco1,17.5
15,CC(C)C(=O)Nc1ccc(Nc2ccccc2)cc1,-12
16,O=S(=O)(NCc1ccccc1)c1ccc(-c2cnc(C3CC3)o2)cc1,16.5
17,CCOC(=O)C1CCCN(C2=NC(=O)/C(=C/c3ccc(OC)cc3OC)S2)C1 (stereo not drawn),-52.6
18,CCc1ccccc1NC(=O)c1cc(S(=O)(=O)N2CCCC2)c[nH]1,9.5
19,CCOc1ccc(/C(O)=C2/C(=O)C(=O)N(CCN(CC)CC)C2c2cccs2)cc1 (stereo not drawn),8.37
20,COc1cccc(NC(=O)C(C)OC(=O)CCCNC(=O)c2ccc(Cl)cc2)c1 (stereo not drawn),-14.6
21,CCc1cc(C(=O)c2ccc(OC)cc2)c(NC(=O)CN2CCN(C)CC2)s1,-71.3
22,O=C(Nc1ccccc1N1CCN(c2ccc(F)cc2)CC1)C12CC3CC(CC(C3)C1)C2,-1.22

row,Structure (SMILES),"hERG current change (%, negative = inhibition) at 10uM [%]"
1,O=C(CSc1nnc(COc2ccccc2)n1Cc1ccco1)NCc1ccco1,0.149
2,CCN(CC)C(=O)CSc1ncnc2c1cnn2-c1ccccc1,-14.2
3,CC(C)(C)n1ncc2c(=O)n(CC(=O)OCc3ccccc3)cnc21,0.341
4,CCCCC(=O)Nc1ccc(C(=O)Nc2ccc(OC)cc2[N+](=O)[O-])cc1,-8.04
5,C/C(=N\NC(=O)c1c(-c2ccccc2Cl)noc1C)c1cccc(NC(=O)C(C)C)c1,-29.3
6,O=C(c1ccco1)N1CCn2cccc2C1c1ccccc1 (stereo not drawn),-16.4
7,O=C(Nc1ccccc1Cl)C1CC(=O)N(c2ccccc2)C1 (stereo not drawn),-0.459
8,CCOc1c(Br)cc(C(=O)OCC(=O)N2CCc3ccccc3C2)cc1OC,-0.0262
9,O=C(NC1(C(F)(F)F)C(=O)Nc2c1c(=O)[nH]c(=O)n2-c1ccccc1)c1cccnc1 (stereo not drawn),22.2
10,O=C(CSc1nnc(-c2cccs2)o1)OC1CCCCC1,-21.1
11,O=C(CSc1nnc(-c2ccco2)n1Cc1ccccc1)c1ccccc1,-18.4
12,Cc1nc(NC(=S)NC(=O)c2cccs2)sc1C(=O)N(C)C,4.43
13,CCOC(=O)C1CCCN(S(=O)(=O)c2ccc(-n3cnnn3)c(C)c2)C1 (stereo not drawn),-11.3
14,COCc1[nH][nH]c(=O)c1/C=N/N1CCOCC1,15.1
15,Nc1cc2sc(-c3ccc(C(=O)O)cc3)nc2cc1Cl,7.11
16,O=C1CN(S(=O)(=O)c2cccc(C(=O)O)c2)c2ccccc2N1,17.5
17,O=C(CN1CCCCCC1)Nc1ccc([N+](=O)[O-])cc1Cl,-5.5
18,COC(=O)Cn1c(=NC(=O)c2ccc([N+](=O)[O-])s2)sc2cc(Br)ccc21,13.1
19,C=CCOc1ccc(C2NC(=S)NC(c3ccccc3)=C2C(C)=O)cc1OC (stereo not drawn),-1.7
20,COc1ccccc1C(=O)OCC(=O)NC(=O)NC1CCCC1,7.52
21,CN(CC(=O)Nc1ccc(F)c(F)c1F)C(=O)/C=C/c1ccc(Cl)cc1,-5.54
